Laboratory results: the antibiotic and cytotoxicity screens of Wong et al. (2023)
Some of the results follow.

Assays:
[1] = test system: HSkMC (human skeletal muscle cells); assay: cytotoxicity call (relative viability < 0.9); conditions: 10 µM
[2] = test system: HepG2; assay: cytotoxicity call (relative viability < 0.9); conditions: 10 µM
[3] = test system: S. aureus RN4220; assay: growth inhibition call (relative growth <= 0.2); conditions: 50 µM

| Compound | cytotoxicity call [1] | cytotoxicity call [2] | growth inhibition call [3] |
| --- | --- | --- | --- |
| C[C@@H]1CN([C@H](C)CO)C(=O)c2cc(NC(=O)Nc3cccc4ccccc34)ccc2O[C@@H](C)CCCCO[C@H]1CN(C)C(=O)c1ccccc1 | inactive | inactive | inactive |
| C[C@@H]1CCCCO[C@@H](CN(C)C(=O)Nc2ccc(F)cc2)[C@@H](C)CN([C@@H](C)CO)C(=O)c2cc(NC(=O)C3CCCCC3)ccc2O1 | inactive | inactive | inactive |
| CC(C)(C)[S@](=O)N1Cc2cc(C(=O)N3CCc4ccccc4C3)nc(-c3cccc(-c4ccncc4)c3)c2[C@@H]1CCO | inactive | inactive | inactive |
| CC(C)(C)C(=O)C[C@@H](Nc1ccccc1)c1ccc(Cl)cc1 | inactive | inactive | inactive |
| C[C@H](CO)N1C[C@H](C)[C@@H](CN(C)C(=O)Nc2ccc(C(C)(C)C)cc2)OCc2cn(nn2)CCCC1=O | inactive | inactive | inactive |
| C[C@@H]1CN([C@@H](C)CO)C(=O)c2cc(C#CC3(O)CCCC3)cnc2O[C@@H]1CN(C)C(=O)CN(C)C | inactive | inactive | inactive |
| S=c1[nH]cc(-c2ccccc2)[nH]1 | inactive | inactive | active |
| C[C@@H]1CN([C@H](C)CO)C(=O)c2cccc(NC(=O)C3CCOCC3)c2O[C@@H]1CN(C)Cc1ccc2c(c1)OCO2 | inactive | inactive | inactive |
| C[C@@H]1CN([C@H](C)CO)C(=O)c2cc(C#CC3CCCCC3)cnc2O[C@@H]1CN(C)C(=O)c1ccncc1 | inactive | inactive | inactive |
| CO[C@H]1CN(C)C(=O)c2cc(NS(=O)(=O)c3cn(C)cn3)ccc2OC[C@H](C)N(CCC(F)(F)F)C[C@@H]1C | inactive | inactive | inactive |
| COc1ccc(NC(=O)N(C)C[C@@H]2OCCCC[C@@H](C)Oc3ccc(NC(=O)Nc4ccc5c(c4)OCO5)cc3C(=O)N([C@H](C)CO)C[C@H]2C)cc1 | inactive | inactive | inactive |
| C[C@H]1CCCCO[C@@H](CN(C)C)[C@@H](C)CN([C@@H](C)CO)C(=O)c2cc(NC(=O)Nc3cccc4ccccc34)ccc2O1 | inactive | inactive | inactive |
| C[C@@H]1CCCCO[C@H](CN(C)Cc2ccc(C(F)(F)F)cc2)[C@@H](C)CN([C@@H](C)CO)C(=O)c2cc(NS(=O)(=O)c3ccc(Cl)cc3)ccc2O1 | active | active | inactive |
| C[C@H]1CN([C@@H](C)CO)C(=O)c2cc(NC(=O)CCC(F)(F)F)ccc2O[C@H]1CN(C)Cc1ccc(Oc2ccccc2)cc1 | inactive | active | inactive |
| C[C@@H]1CN([C@@H](C)CO)C(=O)c2cc(NC(=O)c3ccccc3)ccc2O[C@@H](C)CCCCO[C@H]1CN(C)C(=O)c1ccccc1 | inactive | inactive | inactive |
| C[C@@H]1CCCCO[C@H](CN(C)Cc2ccc(C(F)(F)F)cc2)[C@@H](C)CN([C@@H](C)CO)C(=O)c2cc(N(C)C)ccc2O1 | inactive | inactive | inactive |
| C[C@H]1CN([C@@H](C)CO)C(=O)Cc2cc(NS(=O)(=O)c3ccc(F)cc3)ccc2O[C@H]1CN(C)Cc1ccc(Oc2ccccc2)cc1 | active | active | inactive |
| Cc1noc(C)c1S(=O)(=O)Nc1ccc2c(c1)C(=O)N([C@@H](C)CO)C[C@@H](C)[C@H](CN(C)C(=O)Nc1cccc3ccccc13)OCCCC[C@@H](C)O2 | inactive | inactive | inactive |
| C=CC(=O)Nc1cccc(C)c1Nc1ncc2cc(-c3c(Cl)c(OC)cc(OC)c3Cl)ccc2n1 | inactive | active | inactive |
| COc1cccc(S(=O)(=O)N2C[C@H](O)COC[C@@H]3O[C@@H](CC(=O)N4CCN(C)CC4)CC[C@H]32)c1 | inactive | inactive | inactive |
| CN(C)CCCNC(=O)C[C@H]1CC[C@H]2[C@H](COc3ccc(NC(=O)c4cccc(F)c4)cc3C(=O)N2C)O1 | inactive | inactive | inactive |
| O=C(C[C@H]1C[C@H]2c3cc(NS(=O)(=O)c4ccc(F)cc4)ccc3O[C@H]2[C@H](CO)O1)NCc1ccccc1F | inactive | inactive | inactive |
| C[C@@H]1CN([C@@H](C)CO)C(=O)c2cccc(NC(=O)c3nc4ccccc4s3)c2O[C@H]1CN(C)Cc1ccc(C(=O)Nc2ccccc2N)cc1 | inactive | inactive | inactive |
| Cc1noc(C)c1S(=O)(=O)N(C)C[C@H]1Oc2ccc(NS(=O)(=O)c3ccc(F)cc3)cc2CC(=O)N([C@@H](C)CO)C[C@@H]1C | inactive | inactive | inactive |
| C=CCOC(=O)[C@@H]1[C@H]2C(=O)O[C@H](c3ccccc3)[C@H](c3ccccc3)N2[C@H](c2ccc(OCCOC(=O)[C@@H]3C[C@@H]4C(=O)NCC(=O)N4[C@@H]3c3ccc(O)cc3)cc2)[C@@]12C(=O)Nc1ccccc12 | inactive | inactive | inactive |
| C[N+](C)(C)CCCC[C@@H]1NC(=O)[C@@H]2C[C@H](C(=O)NCCCCCCNC(=O)CS)[C@H](c3ccc(O)cc3)N2C1=O | inactive | inactive | inactive |
| COc1ccc(CN(C)C[C@H]2OCCCC[C@@H](C)Oc3ccc(NS(=O)(=O)c4ccccc4)cc3C(=O)N([C@H](C)CO)C[C@H]2C)cc1 | inactive | inactive | inactive |
| CCN1C(=O)[C@H]2[C@@H](O)CS[C@H]2C1=O | inactive | inactive | inactive |

| Compound | cytotoxicity call [1] | cytotoxicity call [2] | growth inhibition call [3] |
| --- | --- | --- | --- |
| CN1C(=O)CCC1c1cccnc1 (stereo not given) | inactive | inactive | inactive |
| C[C@H]1CN([C@@H](C)CO)C(=O)Cc2cc(NC(=O)Cn3cnnn3)ccc2O[C@H]1CN(C)Cc1ccccc1 | inactive | inactive | inactive |
| COc1ccccc1S(=O)(=O)N[C@H]1C=C[C@@H](CC(=O)N2CCN(C)CC2)O[C@@H]1CO | inactive | inactive | inactive |
| CC1(C(=O)O)CCC2(C)CCC3(C)C(=CC(=O)C4C5(C)CCC(OC6OC(C(=O)O)C(O)C(O)C6OC6OC(C(=O)O)C(O)C(O)C6O)C(C)(C)C5CCC43C)C2C1 (stereo not given) | inactive | inactive | inactive |
| CC(C)N1C[C@@H](C)[C@H](CN(C)Cc2ccc(Oc3ccccc3)cc2)Oc2c(cccc2N(C)C(=O)c2ccncc2)C1=O | inactive | inactive | inactive |
| C[C@H]1CN([C@@H](C)CO)C(=O)c2c(c3ccccc3n2C)-c2ccccc2CO[C@H]1CN(C)C(=O)CCC(F)(F)F | inactive | inactive | inactive |
| COCCOC(=O)N1C(=O)[C@@]2(c3cc(C#CC4=CCCCC4)ccc31)[C@H](c1ccc(O)cc1)N1[C@H](c3ccccc3)[C@H](c3ccccc3)OC(=O)[C@H]1[C@@H]2C(=O)N1CCN(c2ncccn2)CC1 | inactive | inactive | inactive |
| O=C(/C=N/O)NCc1ccccn1 | inactive | active | inactive |
| Cc1ccc(S(=O)(=O)Nc2ccc3c(c2)C(=O)N([C@@H](C)CO)C[C@@H](C)[C@@H](CN(C)Cc2ccc(Cl)c(Cl)c2)O3)cc1 | active | active | inactive |
| CC(C)NC(=O)Nc1ccc2c(c1)C(=O)N([C@@H](C)CO)C[C@@H](C)[C@H](CN(C)C(=O)Nc1cccc3ccccc13)OCCCC[C@@H](C)O2 | inactive | inactive | inactive |
| Cc1cc(C2CCCCC2)n(O)c(=O)c1.NCCO | inactive | active | active |
| Cc1ccc(S(=O)(=O)N(C)C[C@H]2Oc3cc(C#Cc4ccncc4)ccc3S(=O)(=O)N([C@@H](C)CO)C[C@H]2C)cc1 | inactive | active | inactive |
| CN1CCSC1=N | inactive | inactive | inactive |
| CCCCCCC#C[Si](O[C@H](c1ccccc1)c1cn([C@H](C)c2ccccc2)nn1)(C(C)C)C(C)C | inactive | inactive | inactive |
| C[C@H]1CN([C@@H](C)CO)C(=O)c2cccc(NC(=O)Nc3ccc(C(F)(F)F)cc3)c2O[C@H]1CN(C)Cc1ccc(Cl)c(Cl)c1 | active | inactive | inactive |
| C[C@@H]1CCCCO[C@@H](CN(C)Cc2ccc(Cl)c(Cl)c2)[C@@H](C)CN([C@H](C)CO)C(=O)c2cc(NC(=O)CCCN(C)C)ccc2O1 | inactive | active | inactive |
| C[C@@H]1CN([C@@H](C)CO)C(=O)Cc2cc(NS(C)(=O)=O)ccc2O[C@H]1CN(C)Cc1ccc(C(F)(F)F)cc1 | inactive | inactive | inactive |
| NC1CCC(c2ccccc2)CC1 (stereo not given) | inactive | inactive | inactive |
| CCC(=O)N[C@H]1C=C[C@H](CC(=O)OC)O[C@H]1CO | inactive | inactive | inactive |
| CC(C)CC#Cc1ccc2c(c1)O[C@@H](CN(C)C(=O)C1CCOCC1)[C@H](C)CN([C@H](C)CO)S2(=O)=O | inactive | inactive | inactive |
| COC(=O)[C@@H](C)n1nc(-c2ccccc2)c2ccccc21.COC(=O)[C@H](C)n1nc(-c2ccccc2)c2ccccc21 | inactive | inactive | inactive |
| CO[C@@H]1CN(C)C(=O)c2cc(NC(=O)Nc3ccccc3F)ccc2OC[C@@H](C)N(Cc2ccccc2C(=O)O)C[C@H]1C | inactive | inactive | inactive |
| O=C(CCCCC(=O)N/N=C/[C@H](O)[C@@H](O)[C@@H](O)[C@H](O)C(=O)O)NO | inactive | inactive | inactive |
| C[C@@H]1CN([C@H](C)CO)C(=O)CCCn2nncc2CO[C@H]1CN(C)C(=O)Nc1cccc(Oc2ccccn2)c1 | inactive | inactive | inactive |
| C[C@@H]1CN([C@@H](C)CO)C(=O)c2cccc(NC(=O)C3CCOCC3)c2O[C@H]1CN(C)S(=O)(=O)c1cn(C)cn1 | inactive | inactive | inactive |
| COCC#Cc1ccc2c(c1)O[C@@H](CN(C)C(=O)Nc1ccccc1F)[C@@H](C)CN([C@H](C)CO)S2(=O)=O | inactive | inactive | inactive |
| O=C(CN1CCOCC1)NCC[C@@H]1CC[C@H](NC(=O)c2ccccc2F)[C@H](CO)O1 | inactive | inactive | inactive |
